Experimental findings from PubChem BioAssay (NCI) are described below.

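Grown in 96-well plates, cells were treated for 48 hours with each compound at five concentrations. Insufficient inhibition: endpoint recorded as highest concentration tested. At the GI50, growth is halved. The concentration for full growth arrest is given as TGI.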

The experiment has as its system NCI-H322M lung. Kind of experiment: NCI anticancer screen, dose series, 48 h.
Take `CC(=O)OCC1OC(NC(=S)Nn2c(=O)[nH]c3ccccc3c2=O)C(OC(C)=O)C(OC(C)=O)C1OC(C)=O` (configuration not stated): the TGI is above 100 µM.

The compound `COc1ccc(C(C)c2cc3c(cc2OC)OCO3)cc1` (configuration not stated) gave a TGI above 97.2 µM.

Consider `NC(=S)N/N=C/c1ccc(OC(=O)COc2ccc(Cl)cc2)cn1`, for which the GI50 is 8.49 µM and the TGI was above 100 µM. In turn, `C1C2CC3CC1CC(c1nn4c(C56CC7CC(CC(C7)C5)C6)nnc4s1)(C2)C3` showed a TGI above 100 µM.

As for `NC1C/C(=N\O)c2c(Cl)sc(Cl)c21` (configuration not stated), the TGI is above 100 µM. On the same count and under the same terms, the same measure for `COc1cc(C(=O)NNC(=O)c2cc(Br)ccc2NC(=O)c2cccs2)cc(OC)c1OC`: above 100 µM. Still for that read-out and setting: the same measure for `Cc1cccc2nc(-c3ccccc3)cc(=O)n12`: above 100 µM. On to `CC1CN1CC(O)C(O)CN1CC1C` (configuration not stated), for which the GI50 was 8.22 µM and the TGI was 51.7 µM. Compound `CC(C)N(C(=O)C12CC3CC(CC(C3)C1)C2)C(C)C` returned a TGI above 50 µM. As for `COc1ccc(C(=O)COc2cccc(/C=C3\COc4ccc5ccccc5c4C3=O)c2)cc1`, the GI50 is 15.6 µM and the TGI was above 100 µM.

For the compound `CC(=O)OC1CC(O)C23COC(O)C1(C)C2CC(O)C1(C)C3C(=O)C(O)C2(C)C(c3ccoc3)CC3OC321` (configuration not stated), the GI50 is 20.7 µM and the TGI is above 100 µM. For the compound `O=C(/C=C/c1cccc([N+](=O)[O-])c1)N1CCN(CCOC(c2ccccc2)c2ccccc2)CC1`, the TGI is above 100 µM. On the same count and under the same terms, the figure for `c1ccc(C2=NNC3c4ccccc4-c4ccccc4N3C2)cc1` (configuration not stated) is above 100 µM; for `CCOC1=NC(=O)CC(c2ccccc2)S1` (configuration not stated) it is above 100 µM. The same measure, in the same setting: the figure for `O=S(=O)(O)CCSSCCS(=O)(=O)O` is above 1000 µM; for `O=c1cccccc1NCCCNc1cccccc1=O` it is above 100 µM.

As to `CC(=O)OC[C@]12CC[C@H]3[C@@H](C[C@H]4O[C@]45[C@@H](O)C=CC(=O)[C@]35C)[C@@H]1CC[C@@H]2[C@H](C)[C@H]1CC(C)=C(C)C(=O)O1`, the GI50 was 1.09 µM and the TGI came to 2.43 µM. The corresponding values for `Cc1ccc(/C(=C/C=C(C#N)C#N)Sc2ccc(Cl)cc2)cc1` are 13.8 µM and 31.1 µM. On to `COc1ccc2c(c1)C=C([N+](=O)[O-])C(C1OC(C)(C)OC1C1COC(C)(C)O1)O2` (configuration not stated), for which the TGI came out at 27.5 µM. Turning to `CCN(CC)CCCC(C)Nc1c(C)cnc2cc(Cl)c(C)cc12` (configuration not stated), the GI50 is 13.8 µM and the TGI was 28 µM. Compound `O=C1CSC(c2ccccc2)N1c1nc2cc3sc(N4C(=O)CSC4c4ccccc4)nc3cc2s1` (configuration not stated) registered a TGI above 100 µM. The same measure, in the same setting: the same measure for `Cc1cccc(NC(=O)C(=O)Cc2nc3ccccc3[nH]c2=O)c1C`: above 100 µM; for `CC1=CC[C@H](C[C@H](C#CCCCC2OCCO2)O[Si](C(C)C)(C(C)C)C(C)C)C(=O)CC1`: above 100 µM; for `COc1cc(C2C3=C(COC3=O)OC(C)(C)Oc3cc4c(cc32)OCO4)cc(OC)c1O` (configuration not stated): above 100 µM. Still for that read-out and setting: the figure for `Cc1cn(C2OC(CO[Si](C)(C)C(C)(C)C)/C(=C\C#N)C2O[Si](C)(C)C(C)(C)C)c(=O)[nH]c1=O` (configuration not stated) is above 100 µM. Regarding `CN(C)CCOc1ccc(/C(=C(/CCCCCCCCCC[P+](c2ccccc2)(c2ccccc2)c2ccccc2)c2ccccc2)c2ccccc2)cc1`, the GI50 was 0.273 µM and the TGI amounted to 1.32 µM. On to `CCCCCCCCCCCCCC1CCC(CC)N1` (configuration not stated), for which the TGI came to 21.7 µM.

`O=C(c1cccc(O)c1O)c1cn(Cc2ccc(F)cc2)c2cccc(O)c12`: the GI50 is 7.15 µM and the TGI is 23.5 µM. The compound `Cn1c(-c2cccs2)cc(-c2cccs2)c1-c1cccs1` showed a TGI above 100 µM. On the same count and under the same terms, the figure for `Cc1cc(S(=O)(=O)Nc2nc(N)nc(N3N=CCC3C)n2)c(SCC(=O)O)cc1Cl` (configuration not stated) is above 10 µM.

With `COc1cc(OC)c(/C=C/C(=O)c2c(OC)cccc2OC)c(OC)c1`, the GI50 is 2.02 µM and the TGI is above 100 µM. On to `O=C(N/N=C/c1cccc(O)c1O)c1ccccc1`, for which the GI50 was 2.19 µM and the TGI is above 100 µM. Take `Cc1c2c(cc3c1C(=O)C(=O)C([C@@H](C)CO)=C3O)C(C)(C)CCC2`: the TGI is above 100 µM. Same read-out and setting: the same measure for `COc1ccc(C2C(C(=O)O)=C(CO)Oc3cc4c(cc32)OCO4)cc1` (configuration not stated): above 100 µM; for `CC(=O)NC1C(OCc2ccccc2)OC(CO)C(O)C1OC(C)C(=O)NC(C(=O)NC(CCC(=O)NCCCC(=O)Nc1ccc2c(c1)CN1C(=O)c3ccccc3C1=N2)C(N)=O)C(C)C` (configuration not stated): above 100 µM. As to `CC(C)c1ccc(C(=O)Nc2sc3c(c2C(N)=O)CCC(=O)C3)cc1`, the GI50 was 3 µM and the TGI was found to be 18.5 µM. The compound `CC1=NN(c2ccccc2)C2(C1)C(Cl)C(=O)N2c1nc2ccccc2s1` (configuration not stated) displayed a TGI above 100 µM. Still for that read-out and setting: the same measure for `CCCCNC(=S)Nc1nc(C(=O)NNC(=S)NCC)cs1`: above 100 µM; for `CCOC(=O)/C=C/CC(C)(C)COC(C)=O`: above 10 µM. On the same count and under the same terms, the same measure for `COC(=O)C(=O)C(C(=O)C(=O)Nc1ccccc1C(N)=O)c1nc2ccc(Cl)cc2[nH]c1=O` (configuration not stated): above 100 µM; for `C[N+]12CCCCC1C(COc1cccc3cccnc13)CCC2` (configuration not stated): above 100 µM. On the same count and under the same terms, the same measure for `CN1CCCC2C(c3ccccc3)C(C3=NCCCC3)C(c3ccccc3)CC21` (configuration not stated): above 100 µM; for `O=C(CSc1ncccn1)N/N=C/c1ccccc1OCc1ccccc1`: above 100 µM.

Take `Clc1nc(Cl)c2ncn(Cc3cccc(COc4cccc(OCc5cccc(Cn6cnc7c(Cl)nc(Cl)nc76)c5)c4)c3)c2n1`: the GI50 was 18.5 µM and the TGI was 36.8 µM.

In turn, `O=C1c2ccccc2-c2c1c1ccccc1c(=O)n2Cc1ccccc1` returned a TGI above 100 µM.

Turning to `COc1c2c(cc3nc4ccccc4nc13)CCC(C(C)(C)O)C2` (configuration not stated), the TGI is above 100 µM. Compound `Cc1ccc(-c2c(C#N)c(-c3ccccc3)n(NS(=O)(=O)c3ccc(C)cc3)c(=O)c2C#N)cc1` gave a TGI above 100 µM. Still for that read-out and setting: the same measure for `CN(C)P(=O)(/C(N)=N/Nc1ccc([N+](=O)[O-])cc1)N(C)C`: above 100 µM. Turning to `Fc1cc(F)c(COc2cc(Cn3cnc4c(Cl)nc(Cl)nc43)ccc2C23CC4CC(CC(C4)C2)C3)cc1F`, the GI50 was 18.6 µM and the TGI stood at 40.4 µM. For `O=C(Nc1ccc(Cl)cc1)c1cc(-c2ccc(F)cc2)c2sc(=O)[nH]c2n1`, the GI50 was 2.11 µM and the TGI amounted to 6.12 µM. `CC(=O)OC1C=C(C=O)C(O)(C=O)C2(C)CCCC(C)(C)C12` (configuration not stated) returned a TGI of 11.3 µM.

As for `CCOC(=O)c1cc(/C(=N\O)c2cc(OC)c(OC)c(OC)c2)n2cc(C)cc(C)c12`, the GI50 was 4.32 µM and the TGI is above 100 µM. The compound `N#Cc1nc(C2OC(COC(=O)c3ccccc3)C(OC(=O)c3ccccc3)C2OC(=O)c2ccccc2)oc1N` (configuration not stated) yielded a TGI above 100 µM. Consider `NCCCC[C@@H]1NC(=O)[C@H]2CCCN2C(=O)[C@H](Cc2ccccc2)NC(=O)[C@H](Cc2ccccc2)CNC1=O`, for which the GI50 was above 100 µM and the TGI is above 100 µM. The compound `CC(=O)Nc1ccc(-c2nc3ccccc3s2)cc1Br` yielded a TGI above 100 µM.
